In PubChem BioAssay AID1671193 (National Center for Advancing Translational Sciences (NCATS), 2021):
The campaign covered roughly 150,000 compounds. About 180 (0.12%) were called active. The inconclusive results got no clear call from the source; some entries with a clear call stand among them for comparison. Calls come from the whole dose curve; as a rule, active = well fitted cell-killing curve with a large enough effect; inconclusive = small, poorly fitted or top-dose-only effect, or effect the other way; inactive = flat fitted curve, though single readings scatter. A potency beside an inconclusive call is a rough fit, not a confirmed value.

Test: GF-AFC viability counterscreen for inhibitors of alpha-synuclein gene (SNCA) expression; note: nearly all actives have a fitted effect of over 30% in size;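 for activity change, negative = cytotoxicity: 0% = DMSO-treated cells and -100% = medium-only wells without cells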
Conditions: HEK-293-SNCA-luc viability, GF-AFC fluorescence, 24 h; activity change, negative = cytotoxicity: at 57.1 µM (top of the series) unless noted
Procedure, shortened: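 Cytotoxicity counterscreen: after 24 h compound treatment of genome-edited SNCA-luciferase HEK-293 cells, live-cell protease substrate GF-AFC read by fluorescence after 30 min; activity scaled between DMSO (0%) and medium-only (-100%), curves Hill-fitted.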
Potency is the fitted concentration of half-maximal effect; tags give direction and shape of the fitted curve.

SMILES	activity change, negative = cytotoxicity	Potency
OCC1CN(c2ncccn2)CC12CCN(Cc1ccsc1)CC2 (stereo unspecified)	inactive: 6.77%	–
COc1ccc(C(=O)N2CC(=O)N(c3ccc(C)cc3)CC2C)c(OC)n1 (stereo unspecified)	–	inconclusive: 0.794 µM [rising, full curve, poor fit]
OC(c1cccc(C(F)(F)F)c1)c1nc(Nc2cccc(Cl)c2)n[nH]1 (stereo unspecified)	inactive: -21.8% [at 87.6 µM]	–
COc1ccc(/C=C/c2nc(C#N)c(N3CCCCCC3)o2)cc1OC	–	inconclusive: 35.5 µM [rising, single point]
Cc1ccc(C(=O)N2CC(c3nnc(-c4ccc(C)cc4)o3)C3(CCOCC3)C2)cc1 (stereo unspecified)	inactive: -5.3%	–
Brc1ccc(-c2ccnc3nc(-c4cccs4)nn23)cc1	inactive: 9.79%	–
CSc1ccc2cc(CN3CC[C@@H](O)C3)c(-c3ccc(Cl)cc3)nc2c1	inactive: -0.292%	–
Cc1nn2c(c1-c1ccccc1-c1ccccc1)N(Cc1cccc(O)c1)CCC2	–	inconclusive: 10 µM [cytotoxic, full curve]
CC1(C(=O)N2CCN(c3ccccn3)CC2)CCc2cnc(Nc3ccccc3)nc21 (stereo unspecified)	inactive: -22.5% [at 87.6 µM]	–
CC(C)CCN1CCCC2(C1)C(=NC1CCCC1)NC(=O)N2c1cc(F)cc(F)c1 (stereo unspecified)	–	inconclusive: 39.8 µM [cytotoxic, partial curve, poor fit]
COc1ccccc1Nc1c2c(nc3ccc(NC(=O)/C=C/c4cc(OC)c(OC)c(OC)c4)cc13)CCCC2	–	inconclusive: 28.2 µM [cytotoxic, single point]
CC(=O)NCc1nnc2n1C(C(=O)NCc1ccccc1)CC2 (stereo unspecified)	inactive: -21% [at 12.5 µM]	–
Cc1ccccc1Nc1c(-c2cccnc2)nc2cccc(C)n12	–	inconclusive: 39.8 µM [cytotoxic, single point]
Cc1ccc(CN2C(=O)C(=O)c3cc(Br)cc(C)c32)cc1	–	inconclusive: 39.8 µM [cytotoxic, single point]
CC1CCN(C(=O)Cn2cc(SCC(=O)Nc3ccccc3C(F)(F)F)c3ccccc32)CC1	–	inconclusive: 39.8 µM [cytotoxic, single point]
COc1ccc2nc(C[C@@H]3C[C@@H](C(C)C)[C@H](CNC(=O)Nc4ccc(F)cc4)C=C3C)[nH]c2c1	–	inconclusive: 39.8 µM [cytotoxic, single point]
O=C(Nc1ccc(F)cc1)c1cccn2nccc12	inactive: 10.5% [at 87.6 µM]	–
CC(C)NC(=O)c1cc(-c2ccccc2F)cc2c1OCCN2Cc1cccnc1	–	inconclusive: 56.2 µM [cytotoxic, single point]
O=C(Nc1ccccc1)O[C@@H]1CO[C@H]2[C@@H]1OC[C@@H]2NC(=S)Nc1ccccc1	inactive: 2.29% [at 87.6 µM]	–
O=C(NCCc1ccccc1)N1CCC(c2noc(-c3ccccc3)n2)C1 (stereo unspecified)	–	inconclusive: 3.55 µM [cytotoxic, single point]
CC(=O)N1CCC(c2nnc3n2C(C(=O)NCc2ccc(Cl)cc2)CC3)CC1 (stereo unspecified)	inactive: 3.84%	–

SMILES	activity change, negative = cytotoxicity	Potency
CCc1ccccc1NC(=O)CSc1nc2n[nH]c(C)c2c(=N)n1-c1cccc(C)c1	–	inconclusive: 3.55 µM [cytotoxic, partial curve, poor fit]
CC(C)c1ccccc1OC(=O)NCCc1ccc2ccccc2c1	–	inconclusive: 5.32 µM [cytotoxic, partial curve, poor fit]
O=C(NCc1cccc(Cl)c1)c1ccc2nnc(-c3cccc(C(F)(F)F)c3)n2c1	–	inconclusive: 25.1 µM [cytotoxic, partial curve]
COc1ccc2cc1Oc1ccc(cc1)C[C@H]1c3c(cc4c(c3Oc3cc5c(cc3OC)CCN(C)[C@@H]5C2)OCO4)CCN1C	–	inconclusive: 9.47 µM [cytotoxic, partial curve, poor fit]
COCC(=O)N1CCc2nc(C(C)C)nc(-c3ccc(O)cc3)c2C1	–	inconclusive: 28.2 µM [cytotoxic, single point]
Cc1ccccc1C(=O)N1CCC2(CC1)C(=O)N(c1cccc(F)c1)C2c1ccccc1 (stereo unspecified)	–	inconclusive: 39.8 µM [cytotoxic, single point]
CO[C@H]1/C=C/C=C/C=C/C[C@H](OC(=O)[C@@H](C)NC(=O)C2CCCCC2)[C@H](C)[C@@H](O)/C(C)=C/CCc2cc(O)cc(c2)NC(=O)C1	–	inconclusive: 2.81 µM [cytotoxic, partial curve, poor fit]
COc1ccc(CN2CCCC3(CNc4ccccc4[S+](=O)([O-])N3)C2)cc1 (stereo unspecified)	inactive: 5.35%	–
Cc1ccc2oc(C(=O)NCC(c3ccc(Cl)cc3)N3CCOCC3)c(C)c2c1 (stereo unspecified)	–	inconclusive: 25.1 µM [cytotoxic, single point]
COCCn1c(C)cnc1CC1CCCN(C(=O)c2ccccn2)C1 (stereo unspecified)	–	inconclusive: 0.631 µM [cytotoxic, full curve, poor fit]
CCOC(=O)c1ccc(NC(=O)Cn2nc3c(cc2=O)CCCCC3)cc1	inactive: -6.08%	–
CCOc1ccccc1NC(=O)Cn1c(N2CCCCC2)nc(C)c(C)c1=O	–	inconclusive: 1.41 µM [rising, full curve]
COC(=O)c1ccc2nc(C[C@@H]3C[C@@H](C(C)C)[C@H](CN)C=C3C)[nH]c2c1	inactive: -21.8% [at 87.6 µM]	–
O=C(c1cccc(F)c1)N1CCC2(CC1)CN(c1ccc(-c3ccccc3)cc1)C2	inactive: -3%	–
Fc1cccc(CN2CCNc3cc(Nc4ccccc4)ncc3C2)c1	–	inconclusive: 5.62 µM [cytotoxic, full curve, poor fit]
O=C(C1CCCC1)N1CC2(CCN(Cc3ccc(Cl)cc3)C2)Cc2ccccc21 (stereo unspecified)	inactive: -21.5%	–
CC[C@]12C=CCN3CC[C@@]4(c5cc([C@@]6(C(=O)OC)C[C@H]7C[C@@H](C(C)(F)F)CN(Cc8c6[nH]c6ccccc86)C7)c(OC)cc5N(C)[C@H]4[C@@](O)(C(=O)OC)[C@H]1OC(C)=O)[C@@H]32	–	inconclusive: 0.383 µM [cytotoxic, full curve]
O=C(Nc1cccc(-c2ccc(N3CCOCC3)nn2)c1)Nc1ccc2c(c1)CCC2	inactive: -10.4%	–
Cc1cc2c(n1-c1ccc(C(=O)NCc3cccc(Br)c3)cc1)CCC(C)C2 (stereo unspecified)	inactive: -5.98%	–
C[C@@H]1C(=O)O[C@H]2[C@H]1CC[C@@]1(C)Cc3sc(NC(=O)CN(C)C)nc3[C@@H](C)[C@H]21	inactive: -0.283% [at 87.6 µM]	–
